According to PubChem BioAssay AID1030 (National Center for Advancing Translational Sciences (NCATS), 2008):
The campaign covered roughly 220,000 compounds. About 16,000 (7.3%) were called active. Inconclusive means that the source gave no clear call. Such entries were picked first, then a sample of the others. Calls come from the whole dose curve; as a rule, active = well fitted inhibition curve with a large enough effect (not every such curve was filed as active); inconclusive = small, poorly fitted or top-dose-only effect, or another doubt; inactive = no such curve, though single readings can be large or run the other way. No potency is given beside an inconclusive call; the fits are too rough.

Target: Aldehyde dehydrogenase 1A1 (Homo sapiens) (UniProt P00352)
Chain of UniProt P00352 (P00352 whole entry, looked up): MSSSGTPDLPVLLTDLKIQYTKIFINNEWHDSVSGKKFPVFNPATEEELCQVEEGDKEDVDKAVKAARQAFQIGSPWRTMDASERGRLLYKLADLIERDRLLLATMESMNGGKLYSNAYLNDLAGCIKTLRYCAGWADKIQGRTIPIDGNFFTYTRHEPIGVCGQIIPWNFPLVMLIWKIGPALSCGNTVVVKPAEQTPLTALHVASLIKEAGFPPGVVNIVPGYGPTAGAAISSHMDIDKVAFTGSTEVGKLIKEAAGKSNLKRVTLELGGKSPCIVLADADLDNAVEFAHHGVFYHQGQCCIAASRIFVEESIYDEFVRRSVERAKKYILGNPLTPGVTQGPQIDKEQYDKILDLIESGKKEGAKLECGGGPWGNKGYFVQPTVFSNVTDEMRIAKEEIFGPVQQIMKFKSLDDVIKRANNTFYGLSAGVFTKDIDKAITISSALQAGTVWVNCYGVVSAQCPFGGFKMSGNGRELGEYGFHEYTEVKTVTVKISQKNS
Assay: qHTS Assay for Inhibitors of Aldehyde Dehydrogenase 1 (ALDH1A1)
Details: Purified ALDH1A1, NADH fluorescence, propionaldehyde substrate; series mostly up to 75.3 µM
Potency is the fitted concentration of half-maximal effect; tags give direction and shape of the fitted curve.

| SMILES | Potency |
| --- | --- |
| c1ccc2c(c1)OCC(c1nn3c(Cn4nnc5ccccc54)nnc3s1)O2 (stereo not given) | active: 11.2 µM |
| CCC(=O)NC(c1ccc(OC)c(OC)c1)c1cc(Cl)c2cccnc2c1O (stereo not given) | inactive |
| CN(C)C(=O)CN1CCN(C(=O)CCl)CC1 | active: 2.82 µM |
| CC(C(=O)NC1CCCC1)N(Cc1ccc2c(c1)OCO2)C(=O)c1snc(C(N)=O)c1N (stereo not given) | inconclusive [inhibitor, partial curve] |
| CN(C)c1ncc2nc(-c3ccc(F)cc3)c(=O)n(CCc3ccccc3)c2n1 | inconclusive [inhibitor, partial curve] |
| COc1ccc(CN2C(=O)CS(=O)CC2=O)cc1OC | active: 8.91 µM |
| COc1ccc(CNC(=O)COC(=O)c2cc(-c3cccs3)nc3ccccc23)cc1OC | inconclusive [inhibitor, partial curve] |
| O=C(O)CCc1ccc(-c2cccs2)n1CCc1ccccc1 | inconclusive [inhibitor, partial curve] |
| Cn1c2ccc(F)cc2c2ncn(CCCN(CCO)CCO)c(=O)c21 | inconclusive [inhibitor, single point] |
| CC(C)CC(=O)NC1(C(F)(F)F)C(=O)N(CC(C)C)C2=C1C(=O)CC(C)(C)C2 (stereo not given) | inactive |
| O=C(CN1CCN(Cc2ccccc2Cl)CC1)N/N=C/C=C\c1ccccc1[N+](=O)[O-] | inconclusive [inhibitor, single point] |
| O=C(Nc1ccccc1C(=O)NC(Cc1ccccc1)C(=O)NC1CCCCC1)c1ccccc1 (stereo not given) | inactive |
| CCC(CC)c1nnc(NC(=O)c2ccc(N3CCCCC3)c([N+](=O)[O-])c2)s1 | active: 0.794 µM |
| O=C(NCCCn1ccnc1)c1nn2c(C(F)(F)F)cc(-c3ccc(Br)cc3)nc2c1Cl | inactive |
| COCCNC(=O)c1c(N)n(-c2cccc(C)c2)c2nc3ccccc3nc12 | inconclusive [inhibitor, partial curve] |
| COc1ccccc1NC(=O)COc1ccc(/C=N/NS(=O)(=O)c2ccc(C)cc2)cc1 | inconclusive [inhibitor, partial curve] |
| COc1ccc(NC(=S)Nc2ccc3nsnc3c2)cc1 | active: 22.4 µM |
| COc1ccccc1NC(=S)NCc1ccc2c(c1)cc(C)n2C | inconclusive [inhibitor, partial curve] |
| c1ccc(N2CCN(Cc3ccnc4ccccc34)CC2)cc1 | active: 15.8 µM |
| CCCCOc1ccc(C(=O)Nc2cc(C)c(OCC(=O)N3CCOCC3)c(C)c2)cc1 | inconclusive [inhibitor, single point] |
| COc1ccccc1N1CCN(C(=O)c2cc3c(s2)CCC3)CC1 | active: 20 µM |
| Cc1c(C=O)c2ccccn2c1C(=O)c1ccncc1 | inconclusive [inhibitor, partial curve] |
| CN1C(=O)NC(c2ccccc2)C2=C1CN(c1cccc(C(F)(F)F)c1)C2=O (stereo not given) | inconclusive [inhibitor, single point] |
| CC(C)CNC(=O)c1c2c(nc3ccccc13)-c1ccccc1CC2 | inconclusive [inhibitor, single point] |

| SMILES | Potency |
| --- | --- |
| COc1ccc(N2C(=O)CC(N3CCC(O)(c4cccc(C(F)(F)F)c4)CC3)C2=O)cc1 (stereo not given) | inconclusive [inhibitor, single point] |
| O=C(NCCCO)C(=O)NCc1ccncc1 | inactive |
| S=c1[nH]nc(Cc2c[nH]c3ccccc23)o1 | inconclusive [inhibitor, single point] |
| O=C(c1cccc(F)c1)N1CCN(C(=O)c2cc3ncc(Br)cn3n2)CC1 | inconclusive [inhibitor, single point] |
| Cc1ccc(CN(Cc2ccco2)S(=O)(=O)c2ccc(S(=O)(=O)NCC3CCCO3)cc2)cc1 (stereo not given) | inactive |
| C[N+]1(C2CCC3CCCC2C3O)CCCCC1 (stereo not given) | inactive |
| COCc1nnc(NC(=O)CCC2CCCCC2)s1 | inconclusive [inhibitor, single point] |
| Nc1ccc(S(=O)(=O)NC2=NCCCCC2)cc1 | inconclusive [inhibitor, single point] |
| CCOC(=O)C1CCC2(CC1)C(C#N)=C(N)Oc1n[nH]c(C)c12 (stereo not given) | inactive |
| O=C(COC(=O)c1ccccc1F)Nc1cc(S(=O)(=O)N2CCOCC2)ccc1N1CCCC1 | inactive |
| COc1cccc(N(CC(=O)NC(C)c2ccccc2)S(C)(=O)=O)c1 (stereo not given) | inconclusive [inhibitor, single point] |
| O=C(c1ccco1)N1CCN(C(=O)N2c3ccccc3Sc3ccccc32)CC1 | inconclusive [inhibitor, single point] |
| COc1ccc(C(=O)C2CCN(C(=S)NCCc3ccc(OC)c(OC)c3)CC2)cc1 | inconclusive [inhibitor, single point] |
| COc1ccc(-c2nnc(NC(=O)C3CCCO3)s2)cc1 (stereo not given) | inconclusive [inhibitor, partial curve] |
| C=C1C(=O)C=C2CN(C(=O)c3ccccc3)[C@@](Cc3ccc(OC)cc3)(C(=O)OC)[C@@H]12 | inconclusive [inhibitor, partial curve] |
| Cc1noc(/C=C/Nc2ccc(F)cc2F)c1[N+](=O)[O-] | active: 1.26 µM |
| O=C1c2oc3ccc(Cl)cc3c(=O)c2C(c2cccnc2)N1Cc1ccco1 (stereo not given) | inconclusive [inhibitor, partial curve] |
| NS(=O)(=O)c1cccc(NC(=S)NCc2ccccc2)c1 | inconclusive [inhibitor, single point] |
| Cc1ccc(S(=O)(=O)N[C@H](C(=O)N2CCC3(O)CCCCC3C2)c2ccccc2)cc1 (stereo not given in full) | inconclusive [inhibitor, partial curve] |
| Cc1ccc(-n2c(O)c(/C=N/Nc3ccc(S(=O)(=O)N4CCOCC4)cc3[N+](=O)[O-])c3ccccc3c2=O)c(C)c1 | inactive |
| O=C(Cn1cc([N+](=O)[O-])cn1)NCc1ccco1 | inconclusive [inhibitor, partial curve, poor fit] |
| C=CCOc1nc2c(c(=O)n(C)c(=O)n2C)n1C | inactive |
| CCN1CCN(C(=O)/C=C/c2ccc3c(c2)OCO3)CC1 | inconclusive [inhibitor, single point] |
| Cc1cc(C(=O)N/N=C/C=C/c2ccccc2[N+](=O)[O-])c(C)o1 | active: 5.62 µM |

| SMILES | Potency |
| --- | --- |
| Cn1c(-c2sccc2OCc2cccc(C(F)(F)F)c2)n[nH]c1=S | inconclusive [inhibitor, single point] |
| CCc1[nH]nc(C(=O)N2CCCC(CCC(=O)N3CCN(c4ccccn4)CC3)C2)c1C (stereo not given) | inconclusive [inhibitor, partial curve] |
| O=C(CCC1CCCCC1)Nc1ccccc1O | inconclusive [inhibitor, partial curve] |
| COc1cccc(CN(C)C(=O)c2cc(COc3c(F)cccc3F)on2)c1 | inconclusive [inhibitor, single point] |
| CCOC(=O)C1=NN(c2cccc(C)c2)C2(S1)SC(C(C)=O)=C(C)N2c1ccccc1 (stereo not given) | inconclusive [inhibitor, partial curve] |
| Clc1cccc(-c2nnc(SCc3nc4ccccc4[nH]3)n2Cc2ccco2)c1 | inactive |
| Cn1cnnc1SCCC(=O)Nc1ccc(Cl)cc1 | inactive |
| O=C(NCc1ccc2c(c1)OCO2)c1ccc(Cl)s1 | inactive |
| COc1ccc(C2(c3ccc(OC)cc3)NC(=O)N(Cn3nnc4ccccc4c3=O)C2=O)cc1 | inconclusive [inhibitor, single point] |
| COC(=O)C1=C(C)N(Cc2ccccc2)C(=O)N[C@H]1CCc1ccccc1 | inconclusive [inhibitor, single point] |
| CCOC(=O)c1c(C)[nH]c(C(=O)OCC(=O)Nc2cc(C)c(Cl)cc2OC)c1C | inactive |
| O=S(=O)(NC1CCCC1)c1ccc(S(=O)(=O)N2CCc3ccccc32)cc1 | active: 31.6 µM |
| CCOC(=O)c1cc(-c2ccc(OC(F)F)cc2)nc2nc(SC)[nH]c(=O)c12 | inconclusive [inhibitor, partial curve] |
| CC(=O)Nc1ccc(NC(=O)Cn2c(CC(=O)N3CCCC3)nc3ccccc32)cc1 | inactive |
| Nc1c(C(=O)NCCC2=CCCCC2)sc2ccc(S(=O)(=O)N3CCCCC3)cc12 | inconclusive [inhibitor, partial curve] |
| Fc1ccccc1N=C1NN=C(c2ccccc2)CS1 | inconclusive [inhibitor, single point] |
| CN(Cc1ccccc1)S(=O)(=O)c1ccc2c(c1)NC(=O)CC(=O)N2 | inconclusive [inhibitor, partial curve] |
| CCS(=O)(=O)CCSc1nc2ccccc2s1 | inconclusive [inhibitor, single point] |
| Cc1nc2cnc(N(C)C)nc2n(C[C@H]2CCCO2)c1=O | inconclusive [inhibitor, single point] |
| COc1ccc2c(c1)CC/C(=C/c1cc(OC)c(OC)c(OC)c1)C2=O | inconclusive [inhibitor, single point] |
| c1ccc(C2=NNC(=NCc3ccc4c(c3)OCO4)SC2)cc1 | active: 25.1 µM |
| Cc1cc(C=O)c(C)n1-c1ccc(NC2CCCC2)c([N+](=O)[O-])c1 | inconclusive [inhibitor, single point] |
